This assay relates to primary human hepatic stellate cells (donor 1). The experiment in a line: scaled lipid accumulation score (0 = DMSO-like, 1 = nortriptyline-like); higher = stronger HSC inactivation (lipid re-accumulation), active = hit call of the paper. The note with it: 48 h. The protocol:
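Primary lipid accumulation screen in primary human hepatic stellate cell myofibroblasts (donor 1, passage 8) in 384-well plates. 100 nL of library compound was pin-transferred into 30 µL medium in duplicate, and cells were treated for 48 h. The 'Scaled' score combines distance from plate baseline, toxicity and reproducibility penalties, and is normalised to nortriptyline (positive) and DMSO (negative) controls on each plate. A hit is defined as scaled >0.85 or among the top 3 wells per plate.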

The mark [1] stands for this setting: library stock concentration: 10 mM.
Where [2] appears, read: library stock concentration: 3.33 mM.
The mark [3] stands for this setting: library stock concentration: 1 mM.

Structures are written as SMILES. Values joined by “and” are separate entries in the source; they are usually repeats but may differ in a detail not shown here. Equal entries are not always repeated. Structures can show the parent of a compound that is named as a salt. The campaign covered roughly 5,800 compounds. About 620 (11%) showed activity.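 Rule for the calls: active = score above a cut-off or among the top three wells of a plate; in these data no inactive exceeds 0.85.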 The entries are a selection whose mix differs from that of the whole data set. Some results are limits rather than exact numbers.

`CC(=O)N(O)CCCCCNC(=O)CCC(=O)N(O)CCCCCNC(=O)CCC(=O)N(O)CCCCCN` [Deferoxamine mesylate]: the “scaled lipid accumulation score” value was inactive: ≤ 0. The “scaled lipid accumulation score” value (library stock concentration: 3 mM) was inactive: ≤ -0.001. Moreover, under setting [1], the “scaled lipid accumulation score” value was inactive: ≤ 0. `O=S(=O)(c1cccc2cnccc12)N1CCNCC1`: the “scaled lipid accumulation score” value under setting [1] is inactive: 0.248. The same measure, in the same setting: the figure for `NC(Cc1cccc(-c2ccccc2CP(=O)(O)O)c1)C(=O)O` (stereo not drawn) [Phenylbenzene-omega-phosphono-alpha-amino acid] is inactive: ≤ 0.

As to `CC(C)/N=c1\cc2n(-c3ccc(Cl)cc3)c3ccccc3nc-2cc1Nc1ccc(Cl)cc1` [Clofazimine], the “scaled lipid accumulation score” value was inactive: 0.214. For the same compound, the “scaled lipid accumulation score” value under setting [2] was inactive: 0.119. The “scaled lipid accumulation score” value under setting [1] is inactive: 0.449.

For the compound `CC(C)/N=c1\cc2n(-c3ccc(Cl)cc3)c3ccccc3nc-2cc1Nc1ccc(Cl)cc1`, the “scaled lipid accumulation score” value under setting [1] was inactive: ≤ 0. As for `O=C1Cc2cc(CCN3CCN(c4nsc5ccccc45)CC3)c(Cl)cc2N1` [Ziprasidone HCl], the “scaled lipid accumulation score” value under setting [2] was inactive: ≤ 0 and the “scaled lipid accumulation score” value under setting [1] was inactive: 0.045. For `O=C1Cc2cc(CCN3CCN(c4nsc5ccccc45)CC3)c(Cl)cc2N1`, the “scaled lipid accumulation score” value under setting [1] is inactive: 0.239. Take `O=C1Cc2cc(CCN3CCN(c4nsc5ccccc45)CC3)c(Cl)cc2N1` [Ziprasidone hydrochloride monohydrate]: the “scaled lipid accumulation score” value under setting [1] is inactive: 0.074. Regarding `CCCCCC[C@@H]([C@@H](C)O)n1cnc2c(N)ncnc21` (racemic) [erythro-9-(2-Hydroxy-3-nonyl)adenine hydrochloride], the “scaled lipid accumulation score” value under setting [1] is inactive: 0.161. As for `CCCCCC[C@@H]([C@@H](C)O)n1cnc2c(N)ncnc21` (racemic), the “scaled lipid accumulation score” value (library stock concentration: 18 mM) is inactive: 0.052.

With `CCN[C@H]1C[C@H](C)S(=O)(=O)c2sc(S(N)(=O)=O)cc21` [Dorzolamide], where the note is “library stock concentration: 6.2 mM”, the “scaled lipid accumulation score” value was inactive: ≤ -0.006. For the compound `CCN[C@H]1C[C@H](C)S(=O)(=O)c2sc(S(N)(=O)=O)cc21` [Dorzolamide hydrochloride], the “scaled lipid accumulation score” value is inactive: ≤ 0. For the compound `C[N+](C)(C)CCCCCNCC12CC3CC(CC(C3)C1)C2`, the “scaled lipid accumulation score” value under setting [1] was inactive: 0.05. Still for that read-out and setting: the figure for `CN(C)CCC(c1ccc(Br)cc1)c1ccccn1.O=C(O)/C=C\C(=O)O` (centres undefined) is active: 0.9. For `CCCCC[C@H](O)/C=C/[C@@H]1[C@@H](CCCCCCC(=O)O)[C@H](O)C[C@@H]1O` [11.beta.-Prostaglandin F1.beta.], under setting [3], the “scaled lipid accumulation score” value is inactive: ≤ 0. In the case of `CS(=O)(=O)O.Cc1ccc(NC(=O)c2ccc(CN3CCN(C)CC3)cc2)cc1Nc1nccc(-c2cccnc2)n1` [Imatinib Mesylate (STI571)], the “scaled lipid accumulation score” value under setting [1] is active: 1.1.

On to `CCCc1c(OCCCCc2nnn[nH]2)ccc(C(C)=O)c1O`, for which the “scaled lipid accumulation score” value is inactive: ≤ 0 and inactive: ≤ -0.021 under setting [3]; inactive: 0.011 under setting [1]. In the case of `CC1CCc2c(N3CCC(O)CC3)c(F)cc3c(=O)c(C(=O)O)cn1c23` (centres undefined) [Nadifloxacin], the “scaled lipid accumulation score” value is inactive: ≤ 0. The “scaled lipid accumulation score” value under setting [2] is inactive: 0.031. Also, the “scaled lipid accumulation score” value under setting [1] was inactive: 0.009. `CCCCCCCCCCCCCCCC(=O)OC[C@H](COP(=O)([O-])OCC[N+](C)(C)C)OC(=O)CCCCCCCC(=O)/C=C/C(=O)O`: the “scaled lipid accumulation score” value under setting [3] was inactive: 0.026. Same read-out and setting: the figure for `CCCCCC(=O)/C=C/C=O` [4-oxo-2-Nonenal] is inactive: ≤ 0. For the compound `NCC=CC(=O)O` (stereo in doubt) [cis-4-Aminocrotonic acid], the “scaled lipid accumulation score” value under setting [1] is inactive: ≤ 0. As to `CC[C@@H]1C(=O)N(C)c2cnc(Nc3ccc(C(=O)N[C@H]4CC[C@H](N5CCN(CC6CC6)CC5)CC4)cc3OC)nc2N1C(C)C` [Volasertib (BI 6727)], the “scaled lipid accumulation score” value is, setting by setting: under setting [2], active: 0.97; under setting [1], active: 0.916. With `Cc1cc(=O)n(-c2ccccc2)n1C` [Antipyrine], the “scaled lipid accumulation score” value was inactive: 0.017. Besides, under setting [2], the “scaled lipid accumulation score” value was inactive: ≤ 0. For the same compound, under setting [1], the “scaled lipid accumulation score” value is inactive: ≤ -0.001 and inactive: ≤ 0. Moreover, the “scaled lipid accumulation score” value (library stock concentration: 10.6 mM) was inactive: ≤ -0.001. Turning to `Clc1ccc(COC(Cn2ccnc2)c2ccc(Cl)cc2Cl)c(Cl)c1` (centres undefined), the “scaled lipid accumulation score” value under setting [1] was inactive: 0.375. Turning to `Clc1ccc(COC(Cn2ccnc2)c2ccc(Cl)cc2Cl)c(Cl)c1` (centres undefined) [Miconazole Nitrate], the “scaled lipid accumulation score” value reads like this: under setting [2], inactive: 0.004; under setting [1], inactive: 0.377. In the case of `Clc1ccc(COC(Cn2ccnc2)c2ccc(Cl)cc2Cl)c(Cl)c1` (centres undefined) [Miconazole], the “scaled lipid accumulation score” value was inactive: 0.144. Further, the “scaled lipid accumulation score” value under setting [2] was inactive: 0.046. Besides, the “scaled lipid accumulation score” value (library stock concentration: 4.8 mM) is inactive: 0.049. Also, under setting [1], the “scaled lipid accumulation score” value was inactive: ≤ 0. For the compound `Clc1ccc(COC(Cn2ccnc2)c2ccc(Cl)cc2Cl)c(Cl)c1` (centres undefined) [Miconazole nitrate], the “scaled lipid accumulation score” value under setting [1] is inactive: ≤ 0. For the compound `CCCN(CCc1cccs1)[C@H]1CCc2c(O)cccc2C1` [Rotigotine], the “scaled lipid accumulation score” value under setting [2] is inactive: ≤ 0 and the “scaled lipid accumulation score” value under setting [1] was inactive: 0.456. Take `CC(=O)[C@H]1CC[C@H]2[C@@H]3CC=C4C[C@@H](OS(=O)(=O)O)CC[C@]4(C)[C@H]3CC[C@]12C` [Pregnenolone sulfate sodium]: under setting [1], the “scaled lipid accumulation score” value was inactive: ≤ 0. Turning to `CCCCCCCCCCCCCCCC(=O)OC[C@H](COP(=O)([O-])OCC[N+](C)(C)C)OC(=O)CCCC(=O)/C=C/C(=O)O`, the “scaled lipid accumulation score” value under setting [3] was inactive: 0.034.

On to `N#C/C(=C\c1ccc(O)c(O)c1)C(=O)c1ccc(O)c(O)c1` [Tyrphostin AG 538], for which the “scaled lipid accumulation score” value under setting [1] is inactive: ≤ 0. As for `NC12CC3CC(CC(C3)C1)C2` [Amantadine HCl], the “scaled lipid accumulation score” value is inactive: ≤ 0 under setting [2] and inactive: 0.042 under setting [1].

Take `NC12CC3CC(CC(C3)C1)C2` [Amantadine hydrochloride]: the “scaled lipid accumulation score” value was inactive: 0.29 and inactive: 0.659 under setting [1]; inactive: 0.031 (library stock concentration: 10.7 mM).

On to `NC12CC3CC(CC(C3)C1)C2` [Symmetrel], for which, under setting [1], the “scaled lipid accumulation score” value was inactive: 0.158. As for `NC12CC3CC(CC(C3)C1)C2` [Adamantamine fumarate], the “scaled lipid accumulation score” value was inactive: 0.029.

Values taken from the supplement of paper PMC9135407.
